Source: PubChem BioAssay AID1460 (National Center for Advancing Translational Sciences (NCATS), 2008)
The campaign covered roughly 270,000 compounds. About 5,800 (2.1%) were called active. Inconclusive results, whose numbers are uncertain, are shown with a selection of clear calls. The call rests on the fitted dose curve; in most records, active means well fitted inhibition curve with a large enough effect; inconclusive means small, poorly fitted or top-dose-only effect; inactive means flat fitted curve, though single readings scatter. Potencies of inconclusive entries are doubtful fits and often do not repeat.

molecular target: Microtubule-associated protein tau (Homo sapiens) (UniProt P10636); assay: qHTS for Inhibitors of Tau Fibril Formation, Thioflavin T Binding; conditions: recombinant tau K18 P301L (four-repeat tau fragment), heparin-induced fibrillization, ThT fluorescence; series mostly up to 57.4 µM; activity, negative = inhibition: at the top concentration; further: nearly all actives have a fitted effect of over 55% in size
How it was run: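 Heparin-induced (20 uM) aggregation of recombinant human K18 P301L tau, 15 uM unlabeled with 0.24 uM labeled, pH 7 acetate buffer, 6 hr at 37 C with compound. Fibrils quantified by 30 uM ThT fluorescence after 1 hr ambient incubation.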
On the % scale 0 is the no-effect control and ±100 the full control effect; potency means the concentration at half of the fitted maximal effect; tags describe the fitted curve by direction and shape.

UniProt P10636, sequence (P10636 whole entry, looked up, the tested form may be a part): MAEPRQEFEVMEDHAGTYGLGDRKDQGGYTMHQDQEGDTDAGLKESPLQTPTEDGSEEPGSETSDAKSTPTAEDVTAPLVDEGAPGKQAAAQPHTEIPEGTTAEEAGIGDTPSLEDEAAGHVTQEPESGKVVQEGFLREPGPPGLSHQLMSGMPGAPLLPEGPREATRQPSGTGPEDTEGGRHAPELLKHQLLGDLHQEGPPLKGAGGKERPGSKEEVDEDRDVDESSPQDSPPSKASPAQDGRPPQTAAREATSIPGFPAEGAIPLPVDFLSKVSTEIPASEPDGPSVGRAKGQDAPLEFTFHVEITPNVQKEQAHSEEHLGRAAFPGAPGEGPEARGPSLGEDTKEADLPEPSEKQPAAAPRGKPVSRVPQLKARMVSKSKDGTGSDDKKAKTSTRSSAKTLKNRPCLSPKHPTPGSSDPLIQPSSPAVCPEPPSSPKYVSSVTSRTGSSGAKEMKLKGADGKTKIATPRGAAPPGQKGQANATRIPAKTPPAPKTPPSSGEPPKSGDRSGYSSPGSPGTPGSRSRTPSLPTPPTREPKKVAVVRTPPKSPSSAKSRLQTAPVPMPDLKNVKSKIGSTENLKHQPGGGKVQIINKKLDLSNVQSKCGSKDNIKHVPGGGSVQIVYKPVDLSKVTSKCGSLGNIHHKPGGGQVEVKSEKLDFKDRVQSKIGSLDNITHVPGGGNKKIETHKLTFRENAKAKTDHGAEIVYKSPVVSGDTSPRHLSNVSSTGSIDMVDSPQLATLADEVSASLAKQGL

| Compound | Potency | activity, negative = inhibition |
| --- | --- | --- |
| Cc1nc(NC(=O)/C=C/c2ccccc2)sc1C(=O)Nc1ccccc1Cl | inconclusive: 1.12 µM [inhibitor, full curve] | – |
| CCCCCCn1cnc2c(c1=O)c1nc3ccccc3nc1n2/N=C/c1ccco1 | – | inactive: -14.5% |
| O=C(c1cc2ccccc2o1)c1cccs1 | inconclusive: 22.4 µM [inhibitor, partial curve, poor fit] | – |
| Cc1ccccc1CN1C[C@@H]2C[C@@H](c3cnc(N4CCOCC4)s3)N3CCC[C@@]23C1=O | inconclusive: 44.7 µM [inhibitor, single point] | – |
| Cn1cc(C(=O)NCCc2ccc(Cl)cc2)c(=O)c2cc(S(=O)(=O)N3CCOCC3)ccc21 | – | inactive: -4.1% |
| O=C(Nc1ccc(N2CCOCC2)cc1)c1cnsn1 | inconclusive: 6.31 µM [inhibitor, partial curve] | – |
| c1ccc(CCN(Cc2ccccc2)C2CCN(C3CCCC3)CC2)cc1 | – | inactive: 2.37% |
| CCOc1ccc([N+](=O)[O-])c(N)c1 | inconclusive: 14.1 µM [inhibitor, partial curve] | – |
| CCC(C)Nc1nc(-c2ccc3c(c2)NC(=O)CO3)cs1 (stereo unspecified) | inconclusive: 14.1 µM [inhibitor, partial curve] | – |
| CC(=O)c1cccc(-n2c(=O)c3c4c(sc3n(CC(=O)c3ccc(Cl)cc3)c2=O)CN(C(C)=O)CC4)c1 | – | inactive: -0.199% |
| CC1CCCCN1C(=O)CSc1n[nH]c(-c2ccccc2)n1 (stereo unspecified) | – | inactive: 0.127% |
| CCOc1cc(C(=O)Nc2ccc(-c3nc4cc(Cl)ccc4o3)cc2)cc(OCC)c1OCC | – | inactive: -1.81% |
| C/C(N)=C(/C#N)C(=O)CSc1nc2ccc(C)cc2[nH]1 | – | inactive: -12.7% |
| CCc1ccc(OCC(=O)NCc2ccco2)c(Br)c1 | inconclusive: 28.2 µM [inhibitor, single point] | – |
| CCc1nnc(SCc2ccc(F)cc2Cl)c2cc3sc(C)cc3n12 | – | inactive: -13.3% |
| Cc1ccc(CNc2ccc3c(c2)ncn3C(C)(C)C)cc1 | inconclusive: 7.94 µM [inhibitor, full curve] | – |
| O=C(CCN1C(=O)c2ccccc2C1=O)N(CCO)Cc1ccccc1 | – | inactive: 0.281% |
| COc1ccc2nc(N=NC3=C(O)CC(C)(C)CC3=O)sc2c1 | active: 15.8 µM | – |
| COc1ccc(CNCCCSc2nnnn2C)c(OC)c1 | – | inactive: 6.94% |
| CC(=O)c1ccc(NC(=O)c2nc(-c3ccccc3)n(-c3ccccc3Cl)n2)cc1 | – | inactive: -4.77% |
| Cc1ccc(CNC(=O)Cn2cnc3cc([N+](=O)[O-])ccc3c2=O)cc1 | inconclusive: 39.8 µM [inhibitor, single point] | – |
| Clc1cccc(N2CCN(c3c4c(nc5nncn35)CCC4)CC2)c1 | inconclusive: 31.6 µM [inhibitor, partial curve] | – |
| N#Cc1ccccc1Cn1c(SCC(=O)Nc2ccc(F)cc2)nc2ccccc21 | – | inactive: 4.92% |
| CCOc1ccc(C(=O)Nc2onc3c2CCCC3)cc1 | inconclusive: 15.8 µM [inhibitor, partial curve] | – |

| Compound | Potency | activity, negative = inhibition |
| --- | --- | --- |
| O=C(COc1ccccc1)Nc1ccc2nc(SCC(=O)N3CCc4ccccc43)sc2c1 | inconclusive: 0.631 µM [inhibitor, full curve] | – |
| COc1ccc2c(c1)C(c1cccs1)=NNC(c1ccncc1)=N2 | inconclusive: 17.8 µM [inhibitor, partial curve] | – |
| O=C(Nc1nnc(S(=O)(=O)N2CCCCCC2)s1)c1cccc(Br)c1 | inconclusive: 12.6 µM [inhibitor, partial curve] | – |
| O=C1C2C3C=CC(C3=C(c3ccccc3)c3ccccc3)C2C(=O)N1CCO (stereo unspecified) | inconclusive: 10 µM [inhibitor, partial curve] | – |
| COc1cccc(/C=C/C(=O)Nc2ccc3[nH]c(=O)[nH]c3c2)c1 | – | inactive: 1.91% |
| O=C(Nc1nccs1)c1ccc(NC(=O)c2ccco2)cc1 | inconclusive: 14.1 µM [inhibitor, partial curve] | – |
| CCOc1ccc(CCNC(=O)C2CCN(c3ccc(N4CCOCC4)nn3)CC2)cc1OCC | inconclusive: 15.8 µM [inhibitor, partial curve] | – |
| Cc1ccccc1C(=O)/C(C#N)=N/Nc1c(C)n(C)n(-c2ccccc2)c1=O | inconclusive: 10 µM [inhibitor, partial curve] | – |
| CCOc1ccc(Nc2ncnc3c2nc2n3CCCCC2)cc1 | inconclusive: 17.8 µM [inhibitor, partial curve] | – |
| CC(=O)OCC1OC(C#CCCc2ccccc2)C=CC1OC(C)=O (stereo unspecified) | inconclusive: 0.355 µM [inhibitor, full curve, poor fit] | – |
| CC(C)c1cc(=O)oc2c3c4c(cc12)CCCN4CCC3 | inconclusive: 15.8 µM [inhibitor, partial curve] | – |
| CCOC(=O)c1c(-c2ccccc2)csc1NC(=O)c1ccc(S(=O)(=O)N2CCOCC2)cc1 | – | inactive: -10.5% |
| COC(=O)[C@@H]1CC[C@H](C)[C@@H](c2ccc(C)cc2)N1C(=O)c1ccc(/C=N\O[C@@H](C)CN2CCCCc3nc(C)c(C)cc32)cc1 | – | inactive: -5.45% [at 11.5 µM] |
| O=C(CC1Nc2ccccc2NC1=O)Nc1cc(Cl)cc(Cl)c1 (stereo unspecified) | inconclusive: 22.4 µM [inhibitor, partial curve] | – |
| Cc1c(Cl)cccc1NC(=O)c1cc2sccc2n1Cc1ccc(F)cc1 | – | inactive: -3.44% |
| COc1ccc(C(CC(=O)c2ccccc2)S(=O)(=O)c2ccc(C)cc2)cc1 (stereo unspecified) | inconclusive: 20 µM [inhibitor, partial curve] | – |
| CCCc1nn2c(N)c(/C=C3\C=Nc4ccccc43)c(=O)nc2s1 | active: 8.91 µM | – |
| COC(=O)COC(=O)CC(CC(N)=O)c1ccccc1 (stereo unspecified) | – | inactive: -2.29% |
| Cc1c(C(=O)Nc2ccc(-c3nc4cc(Cl)ccc4o3)cc2)oc2ccccc12 | – | inactive: -10.2% |
| CC[C@@H]1C(c2cccc(C)c2)=NN(c2ccccc2)[C@H]1C(=O)N1CCOC1=O | – | inactive: -9.65% [at 81.4 µM] |
| Cc1ccc(-c2noc(-c3ccc(N4CCCCC4C)c([N+](=O)[O-])c3)n2)cc1 (stereo unspecified) | – | inactive: -4.02% |
| Nc1n[nH]c2cc(=O)n(-c3ccc(Cl)cc3)nc12 | inconclusive: 15.8 µM [inhibitor, single point] | – |
| COc1ccccc1-c1c(C)nn2c(N3CCN(Cc4ccccc4)CC3)cc(C)nc12 | inconclusive: 11.2 µM [inhibitor, partial curve, poor fit] | – |
| CSc1ccc(CNc2cccc3ccccc23)cc1 | inconclusive: 17.8 µM [inhibitor, partial curve] | – |

| Compound | Potency | activity, negative = inhibition |
| --- | --- | --- |
| COc1ccc(CCn2c(C(C)C)nc3c(c(=O)c4ccccc4n3C)c2=O)cc1 | inconclusive: 17.8 µM [inhibitor, single point] | – |
| Cc1ccc(C2C3=C(CC(C)(C)CC3=O)NC3=C2C(=O)c2ccccc23)cc1 (stereo unspecified) | inconclusive: 12.6 µM [inhibitor, partial curve] | – |
| CCOc1ccc(CNC(=O)C2CCN(S(=O)(=O)c3ccc4c(ccn4C)c3)CC2)cc1 | – | inactive: 3.16% |
| O=C(NCc1ccco1)c1ccc(Oc2ccccc2)cc1 | – | inactive: -9.39% |
| CCNC(=O)C/C(C)=N/NC(=O)C(=O)Nc1ccc(CC)cc1 | inconclusive: 7.94 µM [inhibitor, partial curve] | – |
| COc1ccc(-c2cc(=O)c3c(OC)c(OC)c(OC)c(OC)c3o2)cc1OC | inconclusive: 25.1 µM [inhibitor, single point] | – |
| N#Cc1ccc(NC(=O)Nc2ccc(Oc3ccc(NC(=O)Nc4ccc(C#N)cc4)cc3)cc2)cc1 | inconclusive: 28.2 µM [activator, single point] | – |
| COC(=O)CC1=C(C(=O)OC)C(c2ccncc2)C(C#N)=C(N)O1 (stereo unspecified) | inconclusive: 39.8 µM [inhibitor, single point] | – |
| Cc1cc(C)n2ncc(C(=O)Nc3ccc(Cl)c(Cl)c3)c2n1 | inconclusive: 5.01 µM [inhibitor, partial curve, poor fit] | – |
| Cc1cc(C)cc(OCC(=O)N/N=C/c2ccc([N+](=O)[O-])o2)c1 | inconclusive: 8.91 µM [inhibitor, partial curve] | – |
| COc1cc2c(C(=O)N3CCOCC3)c(CSc3ccccc3)n(C)c2cc1Br | – | inactive: -1.3% |
| FC(F)(F)c1cc(C(F)(F)F)c2ccc(N3CCN(c4ccccc4)CC3)nc2n1 | inconclusive: 0.891 µM [inhibitor, full curve, poor fit] | – |
| O=C(CSC1=NC(=O)C(Cc2ccccc2)C(=O)N1)Nc1ncccn1 (stereo unspecified) | – | inactive: -16% |
| CC(=C/c1ccc(C(C)C)cc1)/C=N/NC(=O)CSc1ccccn1 | inconclusive: 22.4 µM [inhibitor, partial curve, poor fit] | – |
| O=C(CCCN1C(=O)/C(=C/c2ccco2)SC1=S)Nc1ccccc1 | inconclusive: 17.8 µM [inhibitor, partial curve] | – |
| Cc1cc(-c2ccc(S(=O)(=O)NCc3ccccc3Cl)s2)on1 | – | inactive: -2.64% |
| CCOc1ccc(C(=O)Nc2ccc(NC(=O)c3ccco3)c(Cl)c2)cc1Cl | inconclusive: 0.631 µM [inhibitor, full curve, poor fit] | – |
| CCOc1ccc(/C=N/NC(=O)c2csc(C)c2C)c(OCC)c1 | inconclusive: 28.2 µM [inhibitor, single point] | – |
| Cc1c(-c2cccc(NC(=O)Nc3ccccc3)c2)nc2ncccn12 | inconclusive: 3.55 µM [inhibitor, partial curve] | – |
| Cc1ccc(-c2cc(-c3coc4ccccc4c3=O)c3c(n2)-c2ccccc2OC3)cc1 | – | inactive: -1.3% |
| O=C(C[n+]1ccc(C(=O)N/N=C/c2ccc(Cl)cc2Cl)cc1)c1ccccc1 | active: 15.8 µM | – |
| CN=c1scc(-c2ccccc2F)n1/N=C(\C)c1cccnc1 | inconclusive: 15.8 µM [inhibitor, partial curve] | – |
| O=c1c2c(nc3c(-c4cccc5ccccc45)c[nH]n13)CCC2 | inconclusive: 25.1 µM [inhibitor, single point] | – |
